Assay results taken from paper PMC9911399, “Two distinct binding modes provide the RNA-binding protein RbFox with extraordinary sequence specificity”.
Numbering of substitutions follows the chain as printed; changes in the protein carry UniProt numbers. This is one part of the list.

T1: RBFOX1 RRM RbFoxmut (Fox-RRM*) (Homo sapiens, UniProt Q9NWB1 109-208, R118D;E147R;N151S;E152T)
T1 sequence: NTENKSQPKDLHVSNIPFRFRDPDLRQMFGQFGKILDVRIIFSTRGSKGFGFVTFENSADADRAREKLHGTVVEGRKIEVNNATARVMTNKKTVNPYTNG

B1: AAGUUUC (DNA:RNA)
RNA: GGGAGACCGGAAUUCAGAUUGUCCAAGUUUCUUAAAUCCCGUCGUAGCCACCA
DNA 1: CAATCTGAATTCCGGTCTCCC
DNA 2: TGGTGGCTACGACGGGATT
B2: CGAUGUG (DNA:RNA)
RNA: B1 RNA with A25C, A26G, G27A, U29G, C31G
DNA 1: CAATCTGAATTCCGGTCTCCC
DNA 2: TGGTGGCTACGACGGGATT
B3: CGGGGUU (DNA:RNA)
RNA: B1 RNA with A25C, A26G, U28G, U29G, C31U
DNA 1: CAATCTGAATTCCGGTCTCCC
DNA 2: TGGTGGCTACGACGGGATT
B4: ACGGGGU (DNA:RNA)
RNA: B1 RNA with A26C, U28G, U29G, U30G, C31U
DNA 1: CAATCTGAATTCCGGTCTCCC
DNA 2: TGGTGGCTACGACGGGATT
B5: AGUUACC (DNA:RNA)
RNA: B1 RNA with A26G, G27U, U29A, U30C
DNA 1: CAATCTGAATTCCGGTCTCCC
DNA 2: TGGTGGCTACGACGGGATT
B6: UUUGGCA (DNA:RNA)
RNA: GGGAGACCGGAAUUCAGAUUGUCCUUUGGCAUUAAAUCCCGUCGUAGCCACCA
DNA 1: CAATCTGAATTCCGGTCTCCC
DNA 2: TGGTGGCTACGACGGGATT
B7: GCAGAAC (DNA:RNA)
RNA: B1 RNA with A25G, A26C, G27A, U28G, U29A, U30A
DNA 1: CAATCTGAATTCCGGTCTCCC
DNA 2: TGGTGGCTACGACGGGATT
B8: UAAGGCU (DNA:RNA)
RNA: B6 RNA with U26A, U27A, A31U
DNA 1: CAATCTGAATTCCGGTCTCCC
DNA 2: TGGTGGCTACGACGGGATT
B9: AUGAGAA (DNA:RNA)
RNA: B6 RNA with U25A, U27G, G28A, C30A
DNA 1: CAATCTGAATTCCGGTCTCCC
DNA 2: TGGTGGCTACGACGGGATT
B10: UCUGAGG (DNA:RNA)
RNA: B6 RNA with U26C, G29A, C30G, A31G
DNA 1: CAATCTGAATTCCGGTCTCCC
DNA 2: TGGTGGCTACGACGGGATT
B11: GUGUUUU (DNA:RNA)
RNA: B1 RNA with A25G, A26U, C31U
DNA 1: CAATCTGAATTCCGGTCTCCC
DNA 2: TGGTGGCTACGACGGGATT
B12: GAAGGAU (DNA:RNA)
RNA: B6 RNA with U25G, U26A, U27A, C30A, A31U
DNA 1: CAATCTGAATTCCGGTCTCCC
DNA 2: TGGTGGCTACGACGGGATT
B13: AACAGUC (DNA:RNA)
RNA: B1 RNA with G27C, U28A, U29G
DNA 1: CAATCTGAATTCCGGTCTCCC
DNA 2: TGGTGGCTACGACGGGATT
B14: CGGGGAU (DNA:RNA)
RNA: B6 RNA with U25C, U26G, U27G, C30A, A31U
DNA 1: CAATCTGAATTCCGGTCTCCC
DNA 2: TGGTGGCTACGACGGGATT
B15: GUGCAAG (DNA:RNA)
RNA: B1 RNA with A25G, A26U, U28C, U29A, U30A, C31G
DNA 1: CAATCTGAATTCCGGTCTCCC
DNA 2: TGGTGGCTACGACGGGATT
B16: AGCCCUU (DNA:RNA)
RNA: B1 RNA with A26G, G27C, U28C, U29C, C31U
DNA 1: CAATCTGAATTCCGGTCTCCC
DNA 2: TGGTGGCTACGACGGGATT
B17: AUCACCA (DNA:RNA)
RNA: B6 RNA with U25A, U27C, G28A, G29C
DNA 1: CAATCTGAATTCCGGTCTCCC
DNA 2: TGGTGGCTACGACGGGATT
B18: UCAUCGU (DNA:RNA)
RNA: B1 RNA with A25U, A26C, G27A, U29C, U30G, C31U
DNA 1: CAATCTGAATTCCGGTCTCCC
DNA 2: TGGTGGCTACGACGGGATT
B19: UGAUGAA (DNA:RNA)
RNA: B6 RNA with U26G, U27A, G28U, C30A
DNA 1: CAATCTGAATTCCGGTCTCCC
DNA 2: TGGTGGCTACGACGGGATT
B20: AAGCUGU (DNA:RNA)
RNA: B1 RNA with U28C, U30G, C31U
DNA 1: CAATCTGAATTCCGGTCTCCC
DNA 2: TGGTGGCTACGACGGGATT
B21: GUAACAG (DNA:RNA)
RNA: B6 RNA with U25G, U27A, G28A, G29C, C30A, A31G
DNA 1: CAATCTGAATTCCGGTCTCCC
DNA 2: TGGTGGCTACGACGGGATT
B22: UGUCAGU (DNA:RNA)
RNA: B6 RNA with U26G, G28C, G29A, C30G, A31U
DNA 1: CAATCTGAATTCCGGTCTCCC
DNA 2: TGGTGGCTACGACGGGATT
B23: GAUCGUC (DNA:RNA)
RNA: B1 RNA with A25G, G27U, U28C, U29G
DNA 1: CAATCTGAATTCCGGTCTCCC
DNA 2: TGGTGGCTACGACGGGATT
B24: CAGCAAA (DNA:RNA)
RNA: B1 RNA with A25C, U28C, U29A, U30A, C31A
DNA 1: CAATCTGAATTCCGGTCTCCC
DNA 2: TGGTGGCTACGACGGGATT
B25: UGCGUGC (DNA:RNA)
RNA: B1 RNA with A25U, A26G, G27C, U28G, U30G
DNA 1: CAATCTGAATTCCGGTCTCCC
DNA 2: TGGTGGCTACGACGGGATT
B26: CACAUGC (DNA:RNA)
RNA: B1 RNA with A25C, G27C, U28A, U30G
DNA 1: CAATCTGAATTCCGGTCTCCC
DNA 2: TGGTGGCTACGACGGGATT
B27: GCAUCUA (DNA:RNA)
RNA: B1 RNA with A25G, A26C, G27A, U29C, C31A
DNA 1: CAATCTGAATTCCGGTCTCCC
DNA 2: TGGTGGCTACGACGGGATT
B28: UCGUCCA (DNA:RNA)
RNA: B6 RNA with U26C, U27G, G28U, G29C
DNA 1: CAATCTGAATTCCGGTCTCCC
DNA 2: TGGTGGCTACGACGGGATT
B29: UCUCAGU (DNA:RNA)
RNA: B6 RNA with U26C, G28C, G29A, C30G, A31U
DNA 1: CAATCTGAATTCCGGTCTCCC
DNA 2: TGGTGGCTACGACGGGATT
B30: UCUCAAA (DNA:RNA)
RNA: B6 RNA with U26C, G28C, G29A, C30A
DNA 1: CAATCTGAATTCCGGTCTCCC
DNA 2: TGGTGGCTACGACGGGATT
B31: CGGAGAU (DNA:RNA)
RNA: B1 RNA with A25C, A26G, U28A, U29G, U30A, C31U
DNA 1: CAATCTGAATTCCGGTCTCCC
DNA 2: TGGTGGCTACGACGGGATT

Target: T1, RBFOX1 RRM RbFoxmut (Fox-RRM*)
Test: EMSA; HiTS-Eq, 1 nM pool, 10 min; buffer printed only for the single-RNA assays: 10 mM Tris pH 7.5, 150 mM NaCl, 3.4 mM EDTA, 0.001% NP-40, 30 C
Details: tags: His6 N-terminal (pET28a); label: 5' 32P
Summary of the method: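 Relative association constants, normalised to the cognate motif, were derived by comparing read counts of each RNA species with those of the control reaction. The RNA sequenced was the free fraction, separated by 8% native PAGE after a 10 min equilibration in 50 µL of 1 nM 5′-radiolabelled RNA (7 randomized nucleotides) with increasing concentrations of purified wild-type or mutant RbFox RRM.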

Binder | binding signal
B1 | 0.0938 KA relative to UGCAUGU
B2 | 0.151 KA relative to UGCAUGU
B3 | 0.115 KA relative to UGCAUGU
B4 | 0.127 KA relative to UGCAUGU
B5 | 0.0794 KA relative to UGCAUGU
B6 | 0.112 KA relative to UGCAUGU
B7 | 0.0928 KA relative to UGCAUGU
B8 | 0.0846 KA relative to UGCAUGU
B9 | 0.132 KA relative to UGCAUGU
B10 | 0.0837 KA relative to UGCAUGU
B11 | 0.0966 KA relative to UGCAUGU
B12 | 0.0486 KA relative to UGCAUGU
B13 | 0.0345 KA relative to UGCAUGU
B14 | 0.0914 KA relative to UGCAUGU
B15 | 0.134 KA relative to UGCAUGU
B16 | 0.0649 KA relative to UGCAUGU

Binder | binding signal
B17 | 0.0972 KA relative to UGCAUGU
B18 | 0.0999 KA relative to UGCAUGU
B19 | 0.122 KA relative to UGCAUGU
B20 | 0.0894 KA relative to UGCAUGU
B21 | 0.095 KA relative to UGCAUGU
B22 | 0.103 KA relative to UGCAUGU
B23 | 0.148 KA relative to UGCAUGU
B24 | 0.0953 KA relative to UGCAUGU
B25 | 0.186 KA relative to UGCAUGU
B26 | 0.105 KA relative to UGCAUGU
B27 | 0.288 KA relative to UGCAUGU
B28 | 0.102 KA relative to UGCAUGU
B29 | 0.0795 KA relative to UGCAUGU
B30 | 0.0915 KA relative to UGCAUGU
B31 | 0.104 KA relative to UGCAUGU
